From PubChem BioAssay AID1476 (National Center for Advancing Translational Sciences (NCATS), 2009)
In all, about 200,000 compounds went through this assay and about 4,500 (2.2%) were called active. Inconclusive means that the source gave no clear call. Such entries were picked first, then a sample of the others. Calls come from the whole dose curve; as a rule, active = well fitted inhibition curve with a large enough effect; inconclusive = small, poorly fitted or top-dose-only effect, or effect the other way; inactive = flat fitted curve, though single readings scatter. Potencies beside an inconclusive call are fits to weak or partial responses and may not hold up.

Molecular target: Cruzipain (Trypanosoma cruzi) (UniProt P25779)
Test: qHTS Assay for Promiscuous and Specific Inhibitors of Cruzain (without detergent); note: nearly all actives have a fitted effect of over 40% in size;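 for max response, negative = inhibition: plate controls were enzyme without inhibitor for no effect and buffer without enzyme for full effect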
Details: purified cruzain, Z-FR-AMC fluorescence, no detergent
In short: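 Detergent-free condition (0.00005% Triton X-100) in acetate buffer pH 5.5 with DTT. 1.5 nM enzyme and compound were pre-mixed 15 min, then 2 uM Z-FR-AMC substrate added; reaction progress from fluorescence change between first and third reads (60 s).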
Potency is the fitted concentration of half-maximal effect; tags give direction and shape of the fitted curve.

Chain of UniProt P25779 (P25779 whole entry, looked up): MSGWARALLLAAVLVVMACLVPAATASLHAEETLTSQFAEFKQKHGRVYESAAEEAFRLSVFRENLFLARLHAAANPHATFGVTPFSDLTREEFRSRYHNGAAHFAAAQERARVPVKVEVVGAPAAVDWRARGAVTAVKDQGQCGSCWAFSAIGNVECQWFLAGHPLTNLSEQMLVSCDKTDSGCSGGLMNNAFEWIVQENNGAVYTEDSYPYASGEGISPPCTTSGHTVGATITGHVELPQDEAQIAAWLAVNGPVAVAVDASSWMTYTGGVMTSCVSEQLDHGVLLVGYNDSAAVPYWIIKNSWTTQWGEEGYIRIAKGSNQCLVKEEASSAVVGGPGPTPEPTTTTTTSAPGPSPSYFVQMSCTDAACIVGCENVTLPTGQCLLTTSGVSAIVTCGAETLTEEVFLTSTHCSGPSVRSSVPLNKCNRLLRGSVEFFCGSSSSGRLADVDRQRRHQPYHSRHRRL

SMILES	Potency	max response, negative = inhibition
CN(Cc1ccccc1)S(=O)(=O)c1ccc(NC(=S)NC(=O)C2CCCC2)cc1	active: 2.51 µM	
O=C(/C=C/c1ccc2c(c1)OCO2)Nc1c(C(=O)O)[nH]c2ccccc12	inconclusive: 20 µM [inhibitor, single point]	
COc1ccc(-n2c(SCC(=O)Nc3cc(C)on3)nc3ccc(O)cc3c2=O)cc1OC	inconclusive: 39.8 µM [activator, single point]	
Fc1ccc(Nc2nc(N3CCOCC3)c3ccccc3n2)cc1	active: 15.8 µM	
CCOC(=O)c1cc(-c2ccccc2)n(-c2cccc(C(=O)Nc3cccc(F)c3)c2)c1C	active: 10 µM	
O=C(O)COc1ccccc1C(Nc1ccccn1)c1cc(Cl)c2cccnc2c1O (configuration not stated)	inconclusive: 25.1 µM [activator, partial curve]	
COc1ccc(-c2csc(NC(=O)c3cc(-c4cccs4)nc4ccccc34)n2)c(OC)c1	active: 5.01 µM	
Cc1ccc2c(c1)-c1c(cnn1CC(=O)N(CCC#N)c1ccccc1)CO2	inconclusive: 39.8 µM [activator, single point]	
Cc1cccc(OCc2ccc(C(=O)Nc3ccc(F)cc3)cc2)c1	inconclusive: 31.6 µM [inhibitor, single point]	
Cc1cc(C(=O)COC(=O)c2cc(Cl)ccc2N)c(C)n1Cc1ccco1	active: 25.1 µM	
O=[N+]([O-])c1ccccc1S(=O)(=O)NCCC1=CCCCC1		inactive: -1.6%
COc1cccc(C2c3c(oc4ccc(Cl)cc4c3=O)C(=O)N2c2cc(C)on2)c1OC (configuration not stated)	inconclusive: 15.8 µM [activator, single point]	
COc1ccc(N2CCN(C(=O)C3CCCN(S(=O)(=O)c4ccc5c(c4)CCCN5C(C)=O)C3)CC2)cc1 (configuration not stated)	inconclusive: 20 µM [activator, partial curve]	
Cc1cccc(NC(=O)c2cc(S(=O)(=O)N3CCc4ccccc43)ccc2F)c1C	inconclusive: 25.1 µM [inhibitor, single point]	
Cc1cc(C)n(CC(O)Cn2c3ccccc3c3ccccc32)n1 (configuration not stated)	inconclusive: 39.8 µM [activator, single point]	
C/C(CCC(=O)OC[C@H]1O[C@H](C#Cc2ccccc2)C=C[C@@H]1Oc1ccc(C)cc1)=N\OC[C@@H](O)[C@H]1O[C@@H]2OC(C)(C)O[C@@H]2[C@H]1O	inconclusive: 20 µM [activator, partial curve]	
C=CCOc1cccc(C2c3c(oc4ccccc4c3=O)C(=O)N2c2ccccn2)c1 (configuration not stated)	inconclusive: 1.58 µM [inhibitor, single point]	
